Some of the results follow. Shown are side measurements of this screen, not its main read-out; they come without a call.

Holding throughout (test): Primary Screen for Target Class Profiling of Small Molecule Inhibitors of Methyltransferases
Assay [1] concerns the target Glycine N-methyltransferase (Homo sapiens) (UniProt Q14749). Particulars: purified enzyme, MTase-Glo SAH luminescence; measured here: GNMT inhibition; at 40 µM; stronger effect = lower value. The method in brief: (§1)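 Each enzyme was assayed with SAM and its substrate. SAH formation detected by MTase-Glo luminescence; single-point 40 uM screen[…].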
The target of assay [2] is Guanidinoacetate N-methyltransferase (Homo sapiens) (UniProt Q14353). Conditions: purified enzyme, MTase-Glo SAH luminescence; measured here: GAMT inhibition; at 40 µM; stronger effect = lower value. In a few lines:
as §1

The target in assay [3] is Histamine N-methyltransferase (Homo sapiens) (UniProt P50135). Particulars: purified enzyme, MTase-Glo SAH luminescence; measured here: HNMT inhibition; at 40 µM; stronger effect = lower value. The method in brief:
as §1

For assay [4], the target named is Nicotinamide N-methyltransferase (Homo sapiens) (UniProt P40261). Conditions: purified enzyme, MTase-Glo SAH luminescence; measured here: NNMT inhibition; at 40 µM; stronger effect = lower value. The method in brief:
as §1

In assay [5] the target is Phenylethanolamine N-methyltransferase (Homo sapiens) (UniProt P11086). Conditions: purified enzyme, MTase-Glo SAH luminescence; measured here: PNMT inhibition; at 40 µM; stronger effect = lower value. The method in brief: as §1
% is set by controls: 0 for no effect and ±100 for the full control effect.

On to `Cc1cc(C)cc(N2C(=O)c3ccccc3CC2(C)C(=O)NCc2ccccc2C)c1` (stereo not given), for which the activity change, negative = inhibition in assay [1] is 8.35%; in assay [2], 3.75%; in assay [3], 10.1%; in assay [4] it was 7.58%; in assay [5], 11.7%.
As for `COc1ccc(CN2C[C@@H](CO)[C@H](c3ccccn3)C2)cc1C`, the activity change, negative = inhibition in assay [1] was -4.14%; in assay [2], 0.916%; in assay [3] it was -12.5%; in assay [4] it was -4.01%; in assay [5], -3.18%.
The matching figures for `Cc1ccc2n1CCN(C(=O)Nc1ccc(F)c(Cl)c1)C2C(C)C` (stereo not given): 3.16%, 0%, -3.96%, -4.42% and -1.2%.
Taken in the same sequence, the figures for `CCCn1c(=O)c2ccc(C(=O)NCC(C)C)cc2n2c(=O)n(CC(=O)NC(C)C)nc12` were 3.97%, 0%, 4.56%, 0.866% and 2.58%.
Taken in the same sequence, the figures for `CSC(N)=NCCC[C@H](N)C(=O)O` were 0.083%, 8.07%, -0.567%, -1.84% and 8.29%.
As to `CCOc1ccc(CNC(=O)Cn2ccc3cc(S(=O)(=O)N4CCCC4)ccc32)cc1`, the activity change, negative = inhibition was -1.82% in assay [1]; -0.632% in assay [2]; 2.49% in assay [3]; -4.91% in assay [4]; -0.964% in assay [5].
The matching figures for `O=C(CCc1nnc2n(Cc3ccc(F)cc3)c(=O)c3ccccc3n12)N1CCN(c2ccccn2)CC1`: -19.9%, 0%, -2.55%, -15.8% and -0.196%.
The matching figures for `C=C1C(=O)OC2C=C(C)CC/C=C(\CO)CC(O)C12` (stereo not given): -0.903%, 2.01%, 3.77%, -8.72% and 5.92%.
The matching figures for `O=C(N[C@@H]1CC[C@@H](c2cccc(F)c2F)CN(CC(F)(F)F)C1=O)N1CCC(n2c(=O)[nH]c3ncccc32)CC1`: -9.84%, -1.37%, -0.234%, -37.8% and -6.95%.
For the compound `Cc1ccc(C)c(C(=O)Cn2nc3n(CC(C)C)c(=O)c4ccc(C(=O)NCC(C)C)cc4n3c2=O)c1`, the activity change, negative = inhibition was -0.784% in assay [1]; 5.53% in assay [2]; 2.05% in assay [3]; 4.55% in assay [4]; 2.53% in assay [5].
Turning to `O=C(C1CC(=O)N(C2CC2)C1)N1CCC(Oc2cccnc2)CC1` (stereo not given), the activity change, negative = inhibition in assay [1] is -6.43%; in assay [2], -11%; in assay [3] it was -5.26%; in assay [4] it was -12.2%; in assay [5], -9.7%.
For `CCC(C(=O)NCc1ccccc1OC)n1ccc2cc(S(=O)(=O)N3CCCCC3)ccc21` (stereo not given), the activity change, negative = inhibition in assay [1] stood at 6.47%; in assay [2] it was 0.237%; in assay [3], 4.84%; in assay [4], 4.19%; in assay [5] it was 3.15%.
Taken in the same sequence, the figures for `CCOc1ccc(C2CC(=O)Nc3c2c(C)nn3CC(=O)O)c(OCC)c1C` (stereo not given) were -4.37%, -3.27%, -1.38%, -0.668% and 3.7%.
The matching figures for `COc1ccc(CC(=O)NC2CCN(c3nnc4cccc(C)n34)CC2)cc1`: -12%, -12.8%, -4.7%, -8.92% and -5.67%.
Taken in the same sequence, the figures for `NCCCC(N)(C(=O)O)C(F)F` (stereo not given) were 1.29%, 13.5%, 8.61%, -1.4% and 7.79%.
For `CCOC(=O)c1cc2n(n1)CC(C)(C(=O)NC1CCCC1)N(c1cccc(Cl)c1C)C2=O` (stereo not given), the activity change, negative = inhibition was 1.14% in assay [1]; 0% in assay [2]; -0.572% in assay [3]; 4.88% in assay [4]; 3.72% in assay [5].
The matching figures for `COc1cccc(CNC(=O)CCc2nnc3n(CC(C)C)c(=O)c4ccccc4n23)c1`: -7.86%, 0.967%, -1.73%, -3.41% and -5.1%.
`C=CCn1c(=O)c2ccc(C(=O)NC(C)C)cc2n2c(=O)n(CC(=O)N(C)c3ccccc3)nc12`: the activity change, negative = inhibition was 7.71% in assay [1]; 1.19% in assay [2]; 7.5% in assay [3]; 2.34% in assay [4]; 6.73% in assay [5].
For the compound `CN1C(=O)c2cc(C(=O)Nc3ccccc3Cl)nn2CC1(C)C(=O)NC1CCCCC1` (stereo not given), the activity change, negative = inhibition in assay [1] worked out at 2.49%; in assay [2] it was 0%; in assay [3], 7.4%; in assay [4], 7.16%; in assay [5], 1.84%.
As for `Cc1ccc(CNC(=O)c2ccc3c(=O)nc4c(-c5cccc(F)c5)n[nH]n4c3c2)cc1`, the activity change, negative = inhibition was -2.72% in assay [1]; 7.95% in assay [2]; 0.276% in assay [3]; 3.5% in assay [4]; 0.498% in assay [5].
The matching figures for `NC(=O)C1(c2nc(C3CCOC3)nn2-c2cccc3cccnc23)CC1` (stereo not given): -3.56%, -2.25%, -1.16%, -7.79% and -5.69%.
`Cn1c(=O)n(C)c2cc(S(=O)(=O)NCCCc3ccccc3)ccc21`: the activity change, negative = inhibition in assay [1] was -0.116%; in assay [2], 2%; in assay [3], -1.28%; in assay [4], -2.82%; in assay [5], -1.98%.
The matching figures for `CC(C)NC(=O)C[C@@H]1O[C@H](CNCc2ccc(F)cc2)[C@@H](O)[C@H]1O`: -4.51%, -6.32%, -2.87%, -8.1% and -3.41%.
Taken in the same sequence, the figures for `CN1CC(=O)N(c2ccccc2F)Cc2c1ncnc2N1CCN(c2ncccn2)CC1` were -9.37%, -10.1%, -3.29%, -21.1% and -10.7%.
Taken in the same sequence, the figures for `CNC(=O)[C@@H]1CN(C(=O)c2cc(C)n(CCOC)c2C)C[C@H]1COC` were -4.68%, -11.9%, -3.36%, -11.6% and -8.38%.
As for `COCCC(=O)N1CCC2(CCC2NC(=O)COC)CC1` (stereo not given), the activity change, negative = inhibition in assay [1] was -3.1%; in assay [2], -0.617%; in assay [3] it was 0.343%; in assay [4], -0.377%; in assay [5], 0.943%.
The matching figures for `CC(C)[C@@H]1CN(C(=O)c2scc3c2CCCC3)C[C@H]1NS(C)(=O)=O`: -0.809%, -0.492%, 3.05%, -0.591% and 3.47%.
Taken in the same sequence, the figures for `CC(=O)NC1CC(=O)C23C(=O)NC(Cc4c[nH]c5ccccc45)C2C(C)=C(C)C(O)C3/C=C/CC(C)/C=C(/C)C(O)C1O` (stereo not given) were 8.74%, 5.11%, 11.7%, -12.8% and 7.28%.

These data come from PubChem BioAssay AID1745853 (National Center for Advancing Translational Sciences (NCATS), 2022).
